Among all 120,000 compounds or so, about 5,300 (4.4%) were called active. This list was built around the results that the source calls inconclusive (neither active nor inactive); the mix of calls is not that of the screen. Calls come from the whole dose curve; as a rule, active = well fitted inhibition curve with a large enough effect; inconclusive = small, poorly fitted or top-dose-only effect; inactive = no such curve, though single readings can be large or run the other way. A potency beside an inconclusive call is a rough fit, not a confirmed value.
experiment: qHTS Primary assay for Inhibitors of Plasmodium falciparum Dd2 growth in vitro; note: nearly all actives have a fitted effect of over 65% in size;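 for activity, negative = inhibition: plate controls were DMSO vehicle for no effect and reference drug for full effect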; details: P. falciparum Dd2 growth, SYBR Green, 72 h; activity, negative = inhibition: at 28.9 µM (top of the series) unless noted; series mostly up to 28.9 µM
In short: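 Infected erythrocytes (Dd2, 0.3% parasitemia, 2.5% hematocrit final) are added to compound in RPMI-1640/Albumax II medium, grown 72 h at 37C in low oxygen, then lysed with saponin/Triton-X containing SYBR Green and read by fluorescence.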
Potency is the fitted concentration of half-maximal effect; tags give direction and shape of the fitted curve.

| SMILES | Potency | activity, negative = inhibition | outcome |
| --- | --- | --- | --- |
| O=C1CO[C@H]2CN(Cc3ccccn3)C[C@H]2N1Cc1ccccn1 | inconclusive: 31.6 µM [inhibitor, single point] | – | – |
| Cc1ccc(-c2cn3c(n2)N(C(=O)c2sc(C)nc2C)CCC3)cc1 | inconclusive: 0.282 µM [inhibitor, full curve] | – | – |
| O=C(Nc1ccc(S(=O)(=O)N2CCC(c3nc4ccccc4s3)CC2)cc1)c1ccc(F)cc1 | – | inactive: 10.8% | – |
| Cc1ccc(NC(=O)C2Cc3ccccc3N2C(=O)c2ccccc2)cc1Cl (stereo unspecified) | – | inactive: 42.8% | – |
| COc1ccc2[nH]c(C(=O)N3C[C@@H](Oc4cccnc4)C[C@H]3C(=O)N3CCCC3)cc2c1 | inconclusive: 11.2 µM [inhibitor, single point] | – | – |
| CCC(=O)Nc1sc2c(c1C(=O)Nc1ccc(OC)cc1)CCC(C(C)(C)C)C2 (stereo unspecified) | – | inactive: -1.97% | – |
| CC(=O)NCCC1CCCCN1Cc1nc(C2(c3ccc(C)cc3)CCCC2)no1 (stereo unspecified) | inconclusive: 11.2 µM [inhibitor, single point] | – | – |
| Cn1cnc(S(=O)(=O)N2CC[C@@H]3COCCN(Cc4ccccc4)[C@@H]3C2)c1 | inconclusive: 17.8 µM [inhibitor, single point] | – | – |
| CCOc1ccc(-c2cn(-c3ccc(OC)cc3)c(SCC(=O)Nc3ccccc3Cl)n2)cc1 | inconclusive: 11.2 µM [inhibitor, single point] | – | – |
| Cc1ccc(C(=O)NC(C(=O)N2CCCC2)C2CCN(C(=O)CC(C)C)CC2)cc1 (stereo unspecified) | – | inactive: -7.02% | – |
| O=C(c1ccc(F)c(Cl)c1)N1CCC2(CC1)CN(C1CCC1)CC2CO (stereo unspecified) | inconclusive: 17.8 µM [inhibitor, single point] | – | – |
| CCN(C(=O)c1nn(-c2ccc(OC)c(Cl)c2)c(=O)c2c1c1ccccc1n2C)c1cc(OC)ccc1OC | active: 7.94 µM | – | – |
| COc1ccccc1OCCNC(=O)CCC[C@@H]1[C@H]2CCCN3CCC[C@@H](CN1C(C)=O)[C@@H]23 | inconclusive: 10 µM [inhibitor, single point] | – | – |
| CCN(Cc1noc(C)n1)C(=O)CC1C(=O)NCCN1CC(C)(C)C (stereo unspecified) | – | inactive: 6.75% | – |
| Cc1cc(Cl)ccc1-c1cccc(CN)c1 | active: 14.1 µM | – | – |
| COc1ccc(-n2nc3n(c2=O)CCN(C(=O)c2ccc(Cl)cc2)C3)cc1 | inconclusive: 0.355 µM [inhibitor, full curve, poor fit] | – | – |
| Cc1oc(-c2ccccc2F)nc1CS(=O)(=O)CC(=O)N1CCN(c2cccc(C(F)(F)F)c2)CC1 | inconclusive: 12.6 µM [inhibitor, partial curve, poor fit] | – | – |
| CCOC(=O)C1(Cc2ccccc2F)CCCN(C(=O)CN2CCOC2=O)C1 (stereo unspecified) | inconclusive: 12.6 µM [inhibitor, partial curve, poor fit] | – | – |
| CC(C)CCN1CCC2(CC1)C(=O)Nc1ccccc12 | inconclusive: 12.6 µM [inhibitor, partial curve] | – | – |
| O=C(NC[C@H]1Cn2c(-c3ccccc3)cnc2CO1)c1cnccn1 | inconclusive: 12.6 µM [inhibitor, single point] | – | – |
| CCc1noc(-c2ccn3c(CNC(=O)c4ccc(F)cc4Cl)nnc3c2)n1 | inconclusive: 7.94 µM [inhibitor, partial curve, poor fit] | – | – |
| COc1ccc(OC)c(NC(=O)CSC2=Nc3ccccc3C3=NC(CC(=O)NCc4ccco4)C(=O)N23)c1 (stereo unspecified) | – | – | inactive |

| SMILES | Potency | activity, negative = inhibition | outcome |
| --- | --- | --- | --- |
| COc1ccc(NC(=O)c2sc3nc(C)c(C(=O)Nc4ccc(C)cc4C)c(-c4ccc(Cl)cc4)c3c2N)cc1 | inconclusive: 7.08 µM [inhibitor, partial curve] | – | – |
| CCC(CC)C(=O)Nc1c(C(=O)N2CCN(c3ccccc3F)CC2)oc2ccccc12 | inconclusive: 10 µM [inhibitor, single point] | – | – |
| CN(Cc1cccnc1)Cc1nc(C2(O)CCN(C3CCCC3)CC2)cs1 | – | – | inactive [at 44.1 µM] |
| CCOc1ccc(-c2nc3c(c(SCC(=O)N4CCCCC4)n2)Cc2cc(C)ccc2O3)cc1 | – | inactive: 19% | – |
| COc1ccc(N2CCN(CCCNC(=O)Nc3ccccc3Cl)CC2)cc1 | inconclusive: 20 µM [inhibitor, single point] | – | – |
| O=C(Nc1ccc([C@H]2OCC(=O)N(C3CCOCC3)[C@@H]2CO)cc1)c1ccc(C(F)(F)F)cc1 | – | inactive: 7.48% | – |
| CC(C)CN1C(=O)c2cccn2CC1C(=O)N1CCCC1 (stereo unspecified) | – | inactive: 0.669% | – |
| CCOc1ccc(CN2C(=O)c3ccccc3Sc3ccc(C(=O)N4CCN(C)CC4)cc32)cc1 | active: 0.126 µM | – | – |
| COc1ccc(C(=O)N2CCC3(CC2)OC(=O)N(Cc2ccccc2)C3(C)c2cccnc2)cc1 (stereo unspecified) | inconclusive: 1.12 µM [inhibitor, single point] | – | – |
| CNC(=O)CCn1ncc2cc(OCc3ccccc3-c3cc(F)ccc3OC)ccc21 | inconclusive: 2.51 µM [inhibitor, full curve, poor fit] | – | – |
| CCOc1ccccc1NC(=O)CSC1=Nc2ccccc2C2=NC(CC(=O)NC3CCCCC3)C(=O)N12 (stereo unspecified) | active: 11.2 µM | – | – |
| CNC(=O)[C@@H]1CN(Cc2cccc(Cl)c2F)C[C@H]1CO | – | inactive: -13.1% | – |
| CCOCCN1C(=O)COC[C@@H]1[C@H](O)c1ccc(NC(C)=O)cc1 | – | inactive: 13.9% [at 44.1 µM] | – |
| O=S1(=O)c2ccccc2N(Cc2ccc(Cl)cc2F)c2ccccc21 | inconclusive: 15.8 µM [inhibitor, partial curve, poor fit] | – | – |
| CN(Cc1ccccc1)C[C@H]1CN2CC[C@H]1C[C@@H]2CNC(=O)Nc1ccsc1 | active: 10 µM | – | – |
| O=C(C[C@@H]1C[C@H]2O[C@H](CNCc3ccccc3Cl)[C@@H](O)[C@H]2O1)N1CCC(F)(F)C1 | – | inactive: 32.8% [at 44.1 µM] | – |
| CCC(=O)Nc1nnc(S(=O)(=O)N(C)Cc2ccc(Cl)cc2)s1 | – | inactive: 37% | – |
| CCc1cc(N2CCC3(CC2)CC(c2ccccc2)C(=O)N3C)nc(C)n1 (stereo unspecified) | – | inactive: 6.41% | – |
| CCn1cnnc1-c1nn(C)c2c1CN(C(=O)C(C)c1ccccc1)CC2 (stereo unspecified) | inconclusive: 11.2 µM [inhibitor, single point] | – | – |
| CC1=C[C@@H](CNC(=O)CCC(=O)O)[C@H](C(C)C)C[C@H]1CC(=O)NCc1cccnc1 | – | inactive: 8.36% [at 44.1 µM] | – |
| Cc1cnc(CC2CCN(C(=O)C3CCCC3)C2)n1CC1CC1 (stereo unspecified) | – | – | inactive |
| COc1ccc(Br)c2c1-c1nc(NC(=O)c3cccc(C)c3)sc1C2 | inconclusive: 17.8 µM [inhibitor, single point] | – | – |

| SMILES | Potency | activity, negative = inhibition | outcome |
| --- | --- | --- | --- |
| c1ccc(-c2cn(-c3ccccc3)c3ncnc(N4CCN(c5ccccc5)CC4)c23)cc1 | inconclusive: 17.8 µM [inhibitor, single point] | – | – |
| CCc1nncn1C1CCN(S(=O)(=O)c2cc(OC)ccc2OC)CC1 | inconclusive: 4.47 µM [inhibitor, partial curve] | – | – |
| CN(Cc1ccccc1)C1CCOC2(CCN(C(=O)NCc3ccc(F)cc3)CC2)C1 (stereo unspecified) | inconclusive: 7.94 µM [inhibitor, partial curve, poor fit] | – | – |
| Cc1cc(C)cc(Oc2c(C(F)(F)F)oc3c(CN4CCCC(C)C4)c(O)ccc3c2=O)c1 (stereo unspecified) | inconclusive: 0.708 µM [inhibitor, partial curve, poor fit] | – | – |
| COc1ccccc1N1CCN(c2ccc3cc(S(=O)(=O)N4CCCCC4)ccc3n2)CC1 | inconclusive: 17.8 µM [inhibitor, single point] | – | – |
| CCc1nnc([C@@H]2CC(F)(F)CN2C(=O)CCn2cc(C)cn2)o1 | – | inactive: 5.22% | – |
| CCC1(N2CCN(S(=O)(=O)c3ccc(Cl)s3)CC2)CCN(S(C)(=O)=O)C1 (stereo unspecified) | inconclusive: 12.6 µM [inhibitor, single point] | – | – |
| N#Cc1ccc(CN2CCC3(CC2)C(=O)Nc2ccccc23)cc1 | inconclusive: 11.2 µM [inhibitor, single point] | – | – |
| COCCNC(=O)c1ccc2c(c1)N(C)C(CC(=O)NC1CCC1)CO2 (stereo unspecified) | – | inactive: -9.22% | – |
| COc1ccc(-n2nc(C)c([C@@H]3C=C[C@@H](NC(=S)NCC(C)C)C3)c2C)cc1 | inconclusive: 12.6 µM [inhibitor, partial curve] | – | – |
| CCc1cccc2c(C(CC(=O)NCc3ccco3)c3ccc(OC)c(OC)c3)c[nH]c12 (stereo unspecified) | inconclusive: 2.24 µM [inhibitor, partial curve, poor fit] | – | – |
| O=C(Cc1ccccc1Cl)NC1CCN(c2cc(-c3cccs3)[nH]n2)C1 (stereo unspecified) | – | – | inactive |
| COCc1ncc2c(n1)CCCN(CC(=O)Nc1ccccc1)C2=O | inconclusive: 4.47 µM [inhibitor, partial curve, poor fit] | – | – |
| COc1ccc(NC(=O)c2c(NCc3cccc(F)c3)sc3c2CCCC3)c(OC)c1 | active: 8.91 µM | – | – |
| Cc1cccc(N(C)S(=O)(=O)c2c(C(=O)N3CCCCCC3)c(C)n(C)c2C)c1 | inconclusive: 11.2 µM [inhibitor, single point] | – | – |
| Cc1ccc(Cl)cc1-n1ncc2c(N3CCC(C)CC3)ncnc21 | – | inactive: 0.357% | – |
| COc1ccc(CN2CCOc3nc(-c4cc5ccccc5o4)ncc3C2=O)cc1 | inconclusive: 2 µM [inhibitor, partial curve, poor fit] | – | – |
| CN1CC2(CCN(Cc3cn[nH]c3-c3ccc(F)cc3)CC2)CC1C(=O)N1CCOCC1 (stereo unspecified) | inconclusive: 20 µM [inhibitor, single point] | – | – |
| Fc1ccc(-c2cnc3n2C[C@H](CNCC2CCCCC2)OC3)cc1 | inconclusive: 6.31 µM [inhibitor, partial curve, poor fit] | – | – |
| Cc1nnc([C@@H]2CC(F)(F)CN2C(=O)c2nccc3ccccc23)o1 | – | inactive: 26.4% | – |
| CCOc1c(OC)cccc1-c1nc2ccc(-c3ccc(OC)c(OC)c3OC)cc2o1 | inconclusive: 1.58 µM [inhibitor, full curve, poor fit] | – | – |
| Cc1cccc(CC(=O)NCCc2csc(-c3ccc(C(F)(F)F)cc3)n2)c1 | inconclusive: 8.91 µM [inhibitor, partial curve] | – | – |
